Results: the supplement of paper PMC4604168 (melanoma cell lines)
This is one part of the list. Single values are uncertain, as repeats are few or missing.

Test system: WM1716
Experiment: cell count relative to DMSO control; melanoma cells; higher = more viable cells
Conditions: library dose: low library concentration; 72 h
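Note: cell number obtained by counting DAPI-stained nuclei in high-throughput microscope images with image analysis software, screen run in 1,536-well plates.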

Row | SMILES | cell count
1 | CC(=O)c1c(C)c2cnc(Nc3ccc(N4CCNCC4)cn3)nc2n(C2CCCC2)c1=O [palbociclib] + O=S(=O)(c1ccccc1)N(CC(F)(F)F)c1ccc(C(O)(C(F)(F)F)C(F)(F)F)cc1 [T0901317] (first compound 0.04 µM, partner dose 1.4 µM) | 48.1%
2 | Nc1ccn([C@@H]2O[C@H](CO)[C@@H](O)C2(F)F)c(=O)n1 [gemcitabine] + Nc1nc(F)nc2c1ncn2[C@@H]1O[C@H](CO)[C@@H](O)[C@@H]1O [fludarabine] (first compound 0.0004 µM, partner dose 0.2 µM) | 92.2%
3 | Nc1ncn([C@H]2C[C@H](O)[C@@H](CO)O2)c(=O)n1 [decitabine] + COc1cc(N2CCC(N3CCN(C)CC3)CC2)ccc1Nc1ncc(Cl)c(Nc2ccccc2S(=O)(=O)C(C)C)n1 [NVP-TAE684] (first compound 0.1 µM, partner dose 0.08 µM) | 89.8%
4 | Nc1nc(F)nc2c1ncn2[C@@H]1O[C@H](CO)[C@@H](O)[C@@H]1O [fludarabine] + COc1cc2c(Oc3ccc4[nH]c(C)cc4c3F)ncnc2cc1OCCCN1CCCC1 [cediranib] (first compound 0.2 µM, partner dose 0.4 µM) | 106%
5 | CO[C@H]1C[C@@H]2CC[C@@H](C)[C@@](O)(O2)C(=O)C(=O)N2CCCC[C@H]2C(=O)O[C@H]([C@H](C)C[C@@H]2CC[C@@H](OCCO)[C@H](OC)C2)CC(=O)[C@H](C)/C=C(\C)[C@@H](O)[C@@H](OC)C(=O)[C@H](C)C[C@H](C)/C=C/C=C/C=C/1C [everolimus] + COc1ccc(Cl)c(Nc2nc3ccccc3nc2NS(=O)(=O)c2cccc(NC(=O)C(C)(C)N)c2)c1 [XL147] (first compound 0.02 µM, partner dose 0.8 µM) | 76.9%
6 | Nc1ccn([C@@H]2O[C@H](CO)[C@@H](O)C2(F)F)c(=O)n1 [gemcitabine] + COc1cc2ncnc(Nc3ccc(Oc4ccccc4)cc3)c2cc1OC [SrcI1] (first compound 0.0004 µM, partner dose 2 µM) | 117%
7 | CC(=O)O[C@@]12CO[C@@H]1C[C@H](O)[C@@]1(C)C(=O)[C@H](O)C3=C(C)[C@@H](OC(=O)[C@H](O)[C@@H](NC(=O)OC(C)(C)C)c4ccccc4)C[C@@](O)([C@@H](OC(=O)c4ccccc4)[C@H]21)C3(C)C [Docetaxel] + O=S(=O)(c1ccccc1)N(CC(F)(F)F)c1ccc(C(O)(C(F)(F)F)C(F)(F)F)cc1 [T0901317] (first compound 0.0001 µM, partner dose 1.4 µM) | 34.2%
8 | CO[C@H]1C[C@@H]2CC[C@@H](C)[C@@](O)(O2)C(=O)C(=O)N2CCCC[C@H]2C(=O)O[C@H]([C@H](C)C[C@@H]2CC[C@@H](OCCO)[C@H](OC)C2)CC(=O)[C@H](C)/C=C(\C)[C@@H](O)[C@@H](OC)C(=O)[C@H](C)C[C@H](C)/C=C/C=C/C=C/1C [everolimus] + O=C(O)C(=O)Nc1sc2c(c1C(=O)O)CCNC2 [TCS401] (first compound 0.02 µM, partner dose 1.66667 µM) | 83.9%
9 | CO[C@H]1C[C@@H]2CC[C@@H](C)[C@@](O)(O2)C(=O)C(=O)N2CCCC[C@H]2C(=O)O[C@H]([C@H](C)C[C@@H]2CC[C@@H](OCCO)[C@H](OC)C2)CC(=O)[C@H](C)/C=C(\C)[C@@H](O)[C@@H](OC)C(=O)[C@H](C)C[C@H](C)/C=C/C=C/C=C/1C [everolimus] + CN(C)S(=O)(=O)c1ccc2c(c1)/C(=C/c1cc3c([nH]1)CCCC3)C(=O)N2 [SU6656] (first compound 0.02 µM, partner dose 0.4 µM) | 104%
10 | CC(=O)c1c(C)c2cnc(Nc3ccc(N4CCNCC4)cn3)nc2n(C2CCCC2)c1=O [palbociclib] + O=C1NC(=O)/C(=C/c2ccc(-c3ccc(F)cc3O)o2)S1 [AS252424] (first compound 0.04 µM, partner dose 1 µM) | 57.5%
11 | CC(=O)c1c(C)c2cnc(Nc3ccc(N4CCNCC4)cn3)nc2n(C2CCCC2)c1=O [palbociclib] + O=C(Nc1cccc(Cl)c1)Nc1ncc(CCNc2ncnc3ccsc23)s1 [SNS314] (first compound 0.04 µM, partner dose 0.0008 µM) | 55.2%
12 | Nc1ncn([C@H]2C[C@H](O)[C@@H](CO)O2)c(=O)n1 [decitabine] + C[C@]1(c2nc3c(C(N)=O)cccc3[nH]2)CCCN1 [Veliparib] (first compound 0.1 µM, partner dose 1.4 µM) | 78.7%
13 | CC(=O)c1c(C)c2cnc(Nc3ccc(N4CCNCC4)cn3)nc2n(C2CCCC2)c1=O [palbociclib] + Clc1ccc(Nc2nnc(Cc3ccncc3)c3ccccc23)cc1 [vatalanib] (first compound 0.04 µM, partner dose 2 µM) | 75.3%
14 | Nc1nc(F)nc2c1ncn2[C@@H]1O[C@H](CO)[C@@H](O)[C@@H]1O [fludarabine] + COc1cc2ncnc(Nc3ccc(Oc4ccccc4)cc3)c2cc1OC [SrcI1] (first compound 0.2 µM, partner dose 2 µM) | 97.6%
